Source: PubChem BioAssay (NCATS)
Inconclusive results, whose numbers are uncertain, are shown with a selection of clear calls. For part of these data: No potency is given beside an inconclusive call; the fits are too rough. The source made the active and inactive calls. Calls follow the shape of the dose curve; as a rule, active = well fitted curve in the direction sought with a large enough effect; inconclusive = small, poorly fitted or top-dose-only effect, or another doubt; inactive = no such curve, though single readings can be large; an effect the other way counts as inactive or inconclusive.

How the values were obtained:
[1] = qHTS of pediatric cancer cell lines to identify multiple opportunities for drug repurposing: Primary screen for Saos-2 cells (AID 1347097); also: nearly all actives have a fitted effect of over 40% in size
Outline: (§1)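 500-1,000 cells/well; 5 h pre-incubation 37 °C/5% CO2; compound pinned; 48 h; CellTiter-Glo, 15 min RT; luminescence. MIPE 11-pt from 0.78 nM, NPC 8-pt from 0.59 nM final. Bortezomib 2.3 µM final as positive control.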

[2] = qHTS of pediatric cancer cell lines to identify multiple opportunities for drug repurposing: Primary screen for NB1643 cells (AID 1347099); also: nearly all actives have a fitted effect of over 50% in size
Outline: as §1

[3] = qHTS of pediatric cancer cell lines to identify multiple opportunities for drug repurposing: Primary screen for BT-12 cells (AID 1347101); also: nearly all actives have a fitted effect of over 25% in size
Outline: (§2)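 Cells (500-1,000/well) rested 5 h, then received compounds for 48 h; metabolically active cells were measured by CellTiter-Glo luminescence. Final concentrations spanned up to 46 µM (MIPE, 11-point) or 0.59 nM-46 µM (NPC, 8-point) in primary screens, 11-point in follow-ups.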

[4] = qHTS of pediatric cancer cell lines to identify multiple opportunities for drug repurposing: Primary screen for Rh18 cells (AID 1347102); conditions: Rh18 rhabdomyosarcoma viability, CellTiter-Glo luminescence, 48 h; activity change, negative = cytotoxic: at 46 µM (top of the series); also: nearly all actives have a fitted effect of over 65% in size
Outline: (§3)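 Cells (500-1,000/well) in growth media were settled 5 h at 37 degrees C, then given compounds for 48 h. Viability was read as CellTiter-Glo luminescence. Primary runs used MIPE at 11 points (0.78 nM-46 µM) and NPC at 8 points (0.59 nM-46 µM); follow-ups used 11 points.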

[5] = qHTS of pediatric cancer cell lines to identify multiple opportunities for drug repurposing: Primary screen for MG 63 (6-TG R) cells (AID 1347105); conditions: MG 63 (6-TG R) viability, CellTiter-Glo, 48 h; activity change, negative = cytotoxic: at 46 µM (top of the series); also: nearly all actives have a fitted effect of over 50% in size
Outline: as §1

[6] = qHTS of pediatric cancer cell lines to identify multiple opportunities for drug repurposing: Primary screen for control Hh wild type fibroblast cells (AID 1347106); also: nearly all actives have a fitted effect of over 55% in size
Outline: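 Viability after 48 h compound treatment at 37C, 500-1,000 cells/well, read as ATP luminescence with CellTiter-Glo. Primary screens used 11-point (MIPE, 0.78 nM-46 µM) or 8-point (NPC, 0.59 nM-46 µM) final concentrations; follow-up screens used 11-point dilutions.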

[7] = qHTS of pediatric cancer cell lines to identify multiple opportunities for drug repurposing: Primary screen for SK-N-SH cells (AID 1347098); conditions: SK-N-SH viability, CellTiter-Glo luminescence, 48 h; activity change, negative = cytotoxic: at 57 µM (top of the series); also: nearly all actives have a fitted effect of over 65% in size;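 as to activity change, negative = cytotoxic: DMSO served as neutral control and bortezomib at 2.3 µM as positive control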
Outline: as §2

[8] = qHTS of pediatric cancer cell lines to identify multiple opportunities for drug repurposing: Primary screen for OHS-50 cells (AID 1347103); also: nearly all actives have a fitted effect of over 40% in size
Outline: as §2

[9] = qHTS of pediatric cancer cell lines to identify multiple opportunities for drug repurposing: Primary screen for LAN-5 cells (AID 1347100); conditions: LAN-5 neuroblastoma viability, CellTiter-Glo luminescence, 48 h; activity change, negative = cytotoxic: at 46 µM (top of the series)
Outline: as §3

[10] = qHTS of pediatric cancer cell lines to identify multiple opportunities for drug repurposing: Primary screen for RD cells (AID 1347104); also: nearly all actives have a fitted effect of over 55% in size
Outline: as §1
Potency is read from the fitted curve at half-maximal effect; tags tell the direction and shape of the fitted curve.

Structure (SMILES) | Potency [1] | Potency [2] | Potency [3] | Potency [4] | Potency [5] | Potency [6] | Potency [7] | Potency [8] | Potency [9] | Potency [10]
CC(C)C[C@H](NC(=O)CNC(=O)c1cc(Cl)ccc1Cl)B1OC(=O)CC(CC(=O)O)(C(=O)O)O1 (stereo partly specified) | active: 0.372 µM | active: 0.372 µM | active: 0.217 µM | active: 0.209 µM | active: 0.148 µM | active: 1.05 µM |  |  |  | 
C[C@H]1O[C@@H](O[C@H]2CC[C@@]3(C)[C@H](CC[C@@H]4[C@@H]3C[C@@H](O)[C@]3(C)[C@@H](C5=CC(=O)OC5)CC[C@]43O)C2)C[C@H](O)[C@@H]1O[C@H]1C[C@H](O)[C@H](O[C@H]2C[C@H](O)[C@H](O[C@@H]3O[C@H](CO)[C@@H](O)[C@H](O)[C@H]3O)[C@@H](C)O2)[C@@H](C)O1 | inconclusive [cytotoxic, full curve] |  |  | inconclusive [cytotoxic, full curve] | active: 0.0841 µM | active: 0.075 µM | active: 0.386 µM | active: 0.219 µM |  | 
CC(N[C@H]1CCCC[C@H]1NC(=O)c1ccc(Cl)cc1)c1cccc2ccccc12 (stereo partly specified) | active: 0.0662 µM | active: 0.418 µM | active: 1.37 µM | inconclusive [cytotoxic, partial curve, poor fit] | inconclusive [cytotoxic, partial curve] |  |  |  | active: 2.96 µM | active: 2.64 µM
OCCN1C[C@H](O)[C@@H](O)[C@H](O)[C@@H]1CO | inactive | inactive | inconclusive [cytotoxic, single point] |  |  |  |  |  | inconclusive [cytotoxic, single point] | 
COCc1c(C(C)C)nc(C(C)C)c(/C=C/[C@@H](O)C[C@@H](O)CC(=O)O)c1-c1ccc(F)cc1 | active: 0.106 µM | active: 1.5 µM | inconclusive [cytotoxic, full curve] | active: 0.473 µM | active: 0.0841 µM |  |  |  | active: 3.76 µM | 
Nc1ccc(C(=O)Nc2ccccc2N)cc1 | inconclusive [cytotoxic, partial curve] | active: 7.5 µM | inconclusive [cytotoxic, partial curve] | active: 16.8 µM | inconclusive [cytotoxic, partial curve, poor fit] |  |  |  |  | inconclusive [cytotoxic, partial curve]
O=C(Nc1ccc(Cl)cc1)Nc1ccc(Cl)c(Cl)c1 | inconclusive [cytotoxic, single point] | inconclusive [cytotoxic, single point] | inconclusive [cytotoxic, single point] | inconclusive [cytotoxic, single point] | inconclusive [cytotoxic, single point] |  |  |  | inconclusive [cytotoxic, single point] | active: 23.7 µM
CCN(CC)CCCCNc1ncc2cc(-c3cc(OC)cc(OC)c3)c(NC(=O)NC(C)(C)C)nc2n1 | inconclusive [cytotoxic, full curve] | inactive | active: 24.3 µM |  |  | active: 29.6 µM |  | active: 24.3 µM |  | 
Cc1cc(O)c(C(C)C)cc1Cl | inconclusive [cytotoxic, single point] |  |  |  |  |  | inactive | inconclusive [cytotoxic, single point] |  | 
Nc1ncn([C@@H]2O[C@H](CO)[C@@H](O)[C@@H]2O)c(=O)n1 | inconclusive [cytotoxic, partial curve] |  |  | inconclusive [cytotoxic, partial curve] |  |  | inconclusive [cytotoxic, single point] |  |  | 
C=C(CC)C(=O)c1ccc(OCC(=O)O)c(Cl)c1Cl | inconclusive [cytotoxic, single point] | inconclusive [cytotoxic, single point] | inconclusive [cytotoxic, single point] |  |  |  |  |  | inconclusive [cytotoxic, single point] | inconclusive [cytotoxic, partial curve]
Oc1c(I)cc(Cl)c2cccnc12 | active: 21.1 µM | inconclusive [cytotoxic, single point] | inconclusive [cytotoxic, single point] | inconclusive [cytotoxic, single point] | active: 21.1 µM |  |  | active: 21.9 µM | inconclusive [cytotoxic, single point] | inconclusive [cytotoxic, single point]
